Assay results from patent US10758569B2, “Heteroaryl disulfide compounds as allosteric effectors for increasing the oxygen-binding affinity of hemoglobin” (The General Hospital Corporation, priority 2014, dated 2020).
Marks after values point to notes of the source that are not given here.

Experiments:
hemoglobin = biological target: T1, hemoglobin (Homo sapiens, UniProt P68871+P69905); assay: Oxygen dissociation curve (ODC) of purified hemoglobin, HEMOX analyzer; format: biochemical; details: for P50 of purified Hb / % met Hb: hemoglobin 20 μM; for P50 of purified Hb: added compound 120 μM, no unit in table (text gives P50 in Torr); for % met Hb / n50: compound 120 μM; for n50: purified Hb 20 μM
T1 construct: from tissue; host or cells: outdated donated human red blood cells (hemolysate supernatant, dialysed against DPBS)
Description: The ODC of hemoglobin with Compound 1 was measured to determine the increase of oxygen binding affinity of hemoglobin (FIG. 2A). […] Incubation of hemoglobin with Compound 1 reduced the Bohr effect (the increase of the P50 of hemoglobin induced by decreasing the pH).

Solubility (Table 3) = format: physicochemical; details: solvents (concentration where printed)
whole blood = assay: ODC (P50) of whole blood; details: hemoglobin 20 μM, compound 120 μM

Compound	P50 of purified Hb (hemoglobin)	% met Hb (hemoglobin)	n50 (hemoglobin)	Solubility (Solubility (Table 3))	P50 of whole blood (whole blood; no unit in table)	P50 of whole blood (whole blood; after 1 h @ 37° C.)
c1ccc2c(c1)OCC(c1nnc(SSc3nnc(C4COc5ccccc5O4)[nH]3)[nH]1)O2 (centres unmarked) [Compound 1, 1,2-bis(5-(2,3-dihydrobenzo[b][1,4]dioxin-2-yl)-4H-1,2,4-triazol-3-yl)disulfane]	4	5%	2.23	DMSO, PG (0.5M) PEG-400 (0.5M)	6.06	–
c1cc(-c2nnc(SSc3nnc(-c4ccncc4)[nH]3)[nH]2)ccn1 [Compound 2, 1,2-bis(5-(pyridin-4-yl)-4H-1,2,4-triazol-3-yl)disulfane]	4.94	4.2%	2.7	DMSO, PBS (pH 2.5, <20 mM)	–	10^a
c1ccc(-n2nnnc2SSc2nnnn2-c2ccccc2)cc1 [Compound 10, 1,2-bis(1-phenyl-1H-tetrazol-5-yl)disulfane]	–	1.7%	–	–	29.22	–
CC(=O)c1sc(SSc2nc(C)c(C(C)=O)s2)nc1C [Compound 11, 1,1′-(2,2′-disulfanediylbis(4-methylthiazole-5,2-diyl))diethanone]	15.01	5.4%	2.3	DMSO	–	–
C(=N\c1nnc(SSc2nnc(/N=C/c3ccccc3)s2)s1)/c1ccccc1 [Compound 12, (NE,N′E)-5,5′-disulfanediylbis(N-benzylidene-1,3,4-thiadiazol-2-amine)]	15.4	5.0%	2.52	DMSO	–	–
Sc1nnc(SSc2nnc(S)s2)s1 [Compound 13, 5,5′-disulfanediylbis(1,3,4-thiadiazole-2-thiol)]	4.28^d	6.6%	2.36	–	–	–
Clc1nsc(SSc2nc(Cl)ns2)n1 [Compound 14, 1,2-bis(3-chloro-1,2,4-thiadiazol-5-yl)disulfane]	10.2	7.5%	1.75	DMSO	24.65	–
c1n[nH]cc1SSc1cn[nH]c1 [Compound 15, 1,2-di(1H-pyrazol-4-yl)disulfane]	15.6	1.7%	2.65	DMSO	–	–
Cc1nn(-c2ccccc2)c(C=O)c1SSc1c(C)nn(-c2ccccc2)c1C=O [Compound 16, 4,4′-disulfanediylbis(3-methyl-1-phenyl-1H-pyrazole-5-carbaldehyde)]	9.4	5.3%	2.3	DMSO	–	–
Cc1noc(C)c1SSc1c(C)noc1C [Compound 17, 1,2-bis(3,5-dimethylisoxazol-4-yl)disulfane]	5.91	5.2%	2.4	DMSO	–	–
CCOC(=O)c1sc(SSc2sc(C(=O)OCC)c(C)c2C(=O)OCC)c(C(=O)OCC)c1C [Compound 18, tetraethyl 5,5′-disulfanediylbis(3-methylthiophene-2,4-dicarboxylate)]	16.37	3.3%	2.87	DMSO - not completely soluble	–	–
Nc1nnc(SSc2nnc(N)[nH]2)[nH]1 [Compound 19, 5,5′-disulfanediylbis(4H-1,2,4-triazol-3-amine)]	19	–	–	DMSO, PBS	26.5	–
